Measurements: the supplement of paper PMC4967469
pIC50: −log10 of the molar value. A lower IC50 marks a more sensitive line; a fit beyond the top or the lowest dose is shown as a bound at that dose. AUC sums up the same curve from the lowest dose to the 256-fold higher top dose: 1 means no effect, lower means more sensitive. For part of these data: A top dose marked as inferred comes from the curve model; the source does not state it. For part of these data: An entry number marks a drug with two screens in the source, which often give different values.

What was measured:
Test in all cases: Viability of human cancer cell lines after 72 h of drug (GDSC screen)
[1] = compound: COCC[n+]1c2c(n(Cc3cnccn3)c1C)C(=O)c1ccccc1C2=O [YM155]; details: top dose 5.12 µM
Experimental: (§1)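 Human cancer cell lines in 384-well plates, medium with 10% serum, drug for 72 h over a 256-fold dose range (nine 2-fold or five 4-fold steps up to the top dose). Adherent lines were fixed and stained with the nucleic acid dye Syto60, suspension lines read with resazurin; signal relative to control wells, capped at 0 and 100%. One two-parameter sigmoid per drug and line, fitted in a mixed model over all curves with the slope shared within a line.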

[2] = compound: CC1(C)CNc2cc(NC(=O)c3cccnc3NCc3ccncc3)ccc21 [AMG-706]; details: top dose 2 µM; top dose inferred
Experimental: as §1

[3] = compound: Cc1sc2c(c1C)C(c1ccc(Cl)cc1)=N[C@@H](CC(=O)OC(C)(C)C)c1nnc(C)n1-2 [JQ1]
Experimental: as §1

[4] = compound: C[C@]1(O)C[C@@H](c2nc(-c3ccc4ccc(-c5ccccc5)nc4c3)c3c(N)nccn32)C1 [OSI-906]; details: top dose 2.56 µM; top dose inferred
Experimental: as §1

[5] = compound: c1ccc2c(CCNc3ccc(Nc4ccncc4)cc3)c[nH]c2c1 [JNJ-26854165]; details: top dose 10 µM
Experimental: as §1

[6] = compound: COC(=O)[C@H](CCSC)NC(=O)c1ccc(NC[C@@H](N)CS)cc1-c1ccccc1 [FTI-277]; details: top dose 1.024 µM; top dose inferred
Experimental: as §1

[7] = compound: O=C(/C=C/c1cccc(S(=O)(=O)Nc2ccccc2)c1)NO [Belinostat]; details: top dose 20 µM; top dose inferred
Experimental: as §1

[8] = compound: CC(=O)O[C@@]12CO[C@@H]1C[C@H](O)[C@@]1(C)C(=O)[C@H](O)C3=C(C)[C@@H](OC(=O)[C@H](O)[C@@H](NC(=O)OC(C)(C)C)c4ccccc4)C[C@@](O)([C@@H](OC(=O)c4ccccc4)[C@H]21)C3(C)C [Docetaxel]; details: top dose 0.0125 µM
Experimental: as §1

[9] = compound: CCOc1nc(NC(=O)Cc2cc(OC)ccc2OC)cc(N)c1C#N [JNK Inhibitor VIII]; details: top dose 10 µM; top dose inferred
Experimental: as §1

[10] = compound: CN1CCN(c2ccc([N+](=O)[O-])c3no[n+]([O-])c23)CC1 [NSC-207895]; details: top dose 20 µM; top dose inferred
Experimental: as §1

[11] = compound: Cc1ccc(C(=O)N(CCCN)[C@@H](c2nc3cc(Cl)ccc3c(=O)n2Cc2ccccc2)C(C)C)cc1 [SB-715992]; details: top dose 0.128 µM; top dose inferred
Experimental: as §1

[12] = top dose 1 µM, screen: GDSC drug entry 1218, top dose inferred
[13] = top dose 2.56 µM, screen: GDSC drug entry 163

Cell Line | AUC [1] | pIC50 [1] | AUC [2] | pIC50 [2] | AUC [3, 12] | pIC50 [3, 12] | AUC [3, 13] | pIC50 [3, 13] | AUC [4] | pIC50 [4] | AUC [5] | pIC50 [5] | AUC [6] | pIC50 [6] | AUC [7] | pIC50 [7] | AUC [8] | pIC50 [8] | AUC [9] | pIC50 [9] | AUC [10] | pIC50 [10] | AUC [11] | pIC50 [11]
H2795 (mesothelioma, adherent) | 0.193 | 7.40 | 0.948 | < 5.70 | 0.986 | < 6.00 | 0.88 | < 5.59 | 0.908 | < 5.59 | 0.918 | < 5.00 | 0.982 | < 5.99 | 0.585 | 5.67 | 0.692 | 8.57 | 0.956 | < 5.00 | 0.907 | < 4.70 | 0.987 | < 6.89
H2869 (mesothelioma, adherent) | 0.118 | > 7.70 | 0.941 | < 5.70 | 0.982 | < 6.00 | 0.931 | < 5.59 | 0.746 | 6.01 | 0.913 | < 5.00 | 0.977 | < 5.99 | 0.523 | 5.83 | 0.939 | < 7.90 | 0.946 | < 5.00 | 0.96 | < 4.70 | 0.97 | < 6.89
H3118 (head and neck, adherent) | 0.058 | > 7.70 | 0.981 | < 5.70 | 0.947 | < 6.00 | 0.584 | 6.55 | 0.717 | 6.15 | 0.859 | 5.02 | 0.929 | < 5.99 | 0.271 | 6.59 | 0.707 | 8.49 | 0.971 | < 5.00 | 0.976 | < 4.70 | 0.714 | 7.46
HCC38 (breast, adherent) | 0.041 | > 7.70 | 0.986 | < 5.70 | 0.984 | < 6.00 | 0.572 | 6.59 | 0.972 | < 5.59 | 0.876 | < 5.00 | 0.962 | < 5.99 | 0.451 | 6.04 | 0.824 | 8.08 | 0.982 | < 5.00 | 0.924 | < 4.70 | 0.904 | < 6.89
HCC1395 (breast, adherent) | 0.409 | 6.77 | 0.939 | < 5.70 | 0.978 | < 6.00 | 0.548 | 6.65 | 0.981 | < 5.59 | 0.875 | < 5.00 | 0.969 | < 5.99 | 0.797 | 4.93 | 0.888 | < 7.90 | 0.962 | < 5.00 | 0.98 | < 4.70 | 0.96 | < 6.89
HCC1419 (breast, adherent) | 0.413 | 6.78 | 0.816 | 5.75 | 0.98 | < 6.00 | 0.685 | 6.18 | 0.979 | < 5.59 | 0.869 | < 5.00 | 0.979 | < 5.99 | 0.638 | 5.45 | 0.951 | < 7.90 | 0.891 | < 5.00 | 0.976 | < 4.70 | 0.971 | < 6.89
HCC1428 (breast, adherent) | 0.092 | > 7.70 | 0.956 | < 5.70 | 0.985 | < 6.00 | 0.537 | 6.69 | 0.974 | < 5.59 | 0.946 | < 5.00 | 0.983 | < 5.99 | 0.409 | 6.16 | 0.917 | < 7.90 | 0.973 | < 5.00 | 0.987 | < 4.70 | 0.987 | < 6.89
HCC1500 (breast, adherent) | 0.442 | 6.66 | 0.987 | < 5.70 | 0.924 | < 6.00 | 0.815 | 5.83 | 0.983 | < 5.59 | 0.958 | < 5.00 | 0.988 | < 5.99 | 0.437 | 6.08 | 0.974 | < 7.90 | 0.988 | < 5.00 | 0.962 | < 4.70 | 0.939 | < 6.89
HCC1569 (breast, adherent) | 0.331 | 7.04 | 0.981 | < 5.70 | 0.957 | < 6.00 | 0.56 | 6.61 | 0.972 | < 5.59 | 0.853 | < 5.00 | 0.974 | < 5.99 | 0.535 | 5.79 | 0.957 | < 7.90 | 0.98 | < 5.00 | 0.972 | < 4.70 | 0.917 | < 6.89
HCC1954 (breast, adherent) | 0.082 | > 7.70 | 0.977 | < 5.70 | 0.972 | < 6.00 | 0.965 | < 5.59 | 0.984 | < 5.59 | 0.847 | 5.03 | 0.977 | < 5.99 | 0.643 | 5.48 | 0.864 | < 7.90 | 0.968 | < 5.00 | 0.983 | < 4.70 | 0.446 | 8.26
HCC-44 (lung adenocarcinoma, adherent) | 0.046 | > 7.70 | 0.955 | < 5.70 | 0.985 | < 6.00 | 0.568 | 6.61 | 0.832 | 5.80 | 0.932 | < 5.00 | 0.947 | < 5.99 | 0.301 | 6.45 | 0.331 | 9.57 | 0.947 | < 5.00 | 0.908 | < 4.70 | 0.602 | 7.82
HCC-56 (large intestine, adherent) | 0.702 | 5.92 | 0.987 | < 5.70 | 0.982 | < 6.00 | 0.864 | 5.63 | 0.698 | 6.23 | 0.973 | < 5.00 | 0.987 | < 5.99 | 0.251 | 6.63 | 0.951 | < 7.90 | 0.987 | < 5.00 | 0.906 | < 4.70 | 0.787 | 7.24
HCT-15 (large intestine, adherent) | 0.306 | 7.06 | 0.973 | < 5.70 | 0.985 | < 6.00 | 0.626 | 6.44 | 0.987 | < 5.59 | 0.929 | < 5.00 | 0.861 | 6.02 | 0.586 | 5.66 | 0.978 | < 7.90 | 0.98 | < 5.00 | 0.919 | < 4.70 | 0.968 | < 6.89
HEC-1 (endometrium, adherent) | 0.104 | > 7.70 | 0.989 | < 5.70 | 0.987 | < 6.00 | 0.716 | 6.20 | 0.988 | < 5.59 | 0.914 | < 5.00 | 0.987 | < 5.99 | 0.499 | 5.91 | 0.721 | 8.49 | 0.989 | < 5.00 | 0.976 | < 4.70 | 0.972 | < 6.89
HGC-27 (stomach, adherent) | 0.023 | > 7.70 | 0.989 | < 5.70 | 0.986 | < 6.00 | 0.411 | 7.02 | 0.982 | < 5.59 | 0.89 | 5.07 | 0.97 | < 5.99 | 0.436 | 6.07 | 0.47 | 9.18 | 0.99 | < 5.00 | 0.89 | 4.77 | 0.844 | 7.14
HN (head and neck, adherent) | 0.42 | 6.71 | 0.966 | < 5.70 | 0.968 | < 6.00 | 0.894 | < 5.59 | 0.984 | < 5.59 | 0.87 | 5.08 | 0.989 | < 5.99 | 0.8 | 5.05 | 0.544 | 8.99 | 0.952 | < 5.00 | 0.989 | < 4.70 | 0.989 | < 6.89
HO-1-u-1 (head and neck, adherent) | 0.034 | > 7.70 | 0.987 | < 5.70 | 0.904 | < 6.00 | 0.912 | < 5.59 | 0.982 | < 5.59 | 0.828 | 5.23 | 0.988 | < 5.99 | 0.41 | 6.15 | 0.495 | 9.12 | 0.988 | < 5.00 | 0.932 | < 4.70 | 0.986 | < 6.89
HT55 (large intestine, adherent) | 0.984 | < 5.29 | 0.99 | < 5.70 | 0.99 | < 6.00 | 0.955 | < 5.59 | 0.985 | < 5.59 | 0.962 | < 5.00 | 0.99 | < 5.99 | 0.543 | 5.79 | 0.863 | 7.97 | 0.99 | < 5.00 | 0.99 | < 4.70 | 0.982 | < 6.89
HT-3 (cervix, adherent) | 0.029 | > 7.70 | 0.979 | < 5.70 | 0.775 | 6.40 | 0.664 | 6.34 | 0.935 | < 5.59 | 0.908 | < 5.00 | 0.964 | < 5.99 | 0.386 | 6.22 | 0.679 | 8.60 | 0.979 | < 5.00 | 0.847 | 4.82 | 0.953 | < 6.89
HT-115 (large intestine, adherent) | 0.978 | < 5.29 | 0.983 | < 5.70 | 0.991 | < 6.00 | 0.867 | 5.71 | 0.991 | < 5.59 | 0.958 | < 5.00 | 0.974 | < 5.99 | 0.431 | 6.08 | 0.928 | < 7.90 | 0.987 | < 5.00 | 0.991 | < 4.70 | 0.989 | < 6.89
